Measurements as given in the supplement of paper PMC7125110.
± gives the standard error. Variants at the background level are over-represented here.

B1: glmS ribozyme (parent)
chain: AUAAAAGCGCCAGAACUACAGAAAUGUAGUUGACGAGGAGGAGGUUUAUCGAAUUUUCGGCGGAUGCCUCCAAA

Columns and labels:
Settings in all cases: with glucosamine-6-phosphate
glucosamine-6-phosphate [1] = variants of: B1; test: self-cleavage kobs at 40 uM GlcN6P; higher = faster cleavage; RNA array
Outline: (§1)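 kcat and KM were obtained from weighted Michaelis–Menten fits across concentrations of kobs values. Those came from one- or two-exponential decay fits to per-tile medians normalised to baseline and to non-cleaving reference variants. The variants were barcoded ribozymes transcribed in situ by E. coli RNA polymerase on sequenced MiSeq chips and tracked through a hybridised Cy3 probe at 37 °C, with 40 μM to 10 mM glucosamine-6-phosphate in HEPES/KCl/Mg(OAc)2 buffer flowed in.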

glucosamine-6-phosphate [2] = variants of: B1; test: self-cleavage kobs at 640 uM GlcN6P; higher = faster cleavage; RNA array
Outline: as §1

glucosamine-6-phosphate [3] = variants of: B1; test: self-cleavage kobs at 160 uM GlcN6P; higher = faster cleavage; RNA array
Outline: as §1

glucosamine-6-phosphate [4] = variants of: B1; test: self-cleavage kobs at 2500 uM GlcN6P; higher = faster cleavage; RNA array
Outline: as §1

glucosamine-6-phosphate [5] = variants of: B1; test: self-cleavage kobs at 10000 uM GlcN6P; higher = faster cleavage; RNA array
Outline: as §1

Variant	self-cleavage kobs at 40 uM GlcN6P (glucosamine-6-phosphate [1]) [s⁻¹]	self-cleavage kobs at 640 uM GlcN6P (glucosamine-6-phosphate [2]) [s⁻¹]	self-cleavage kobs at 160 uM GlcN6P (glucosamine-6-phosphate [3]) [s⁻¹]	self-cleavage kobs at 2500 uM GlcN6P (glucosamine-6-phosphate [4]) [s⁻¹]	self-cleavage kobs at 10000 uM GlcN6P (glucosamine-6-phosphate [5]) [s⁻¹]
A14G G29U	0.000647 ± 0.00012	0.00497 ± 0.00096	0.00105 ± 0.00022	0.00501 ± 0.0013	0.0131 ± 0.0033
G13U G35U G63C A64U	< 1e-05				
G13U A15U A48U	< 1e-05	< 1e-05		< 1e-05	< 1e-05
A14G U57G	< 1e-05				
A14C C34U A36U	< 1e-05	< 1e-05		< 1e-05	
G13U G44U G59U	< 1e-05				
G13U G59U	< 1e-05	< 1e-05	< 1e-05		< 1e-05
A14G U56G	0.00201 ± 0.00033	0.0223 ± 0.0035	0.0087 ± 0.0018	0.0673 ± 0.027	0.0704 ± 0.02
A14U U31C G51A	< 1e-05	< 1e-05			
G13U G38A A39U	< 1e-05				
G13C G59U	< 1e-05	< 1e-05	< 1e-05	< 1e-05	
A14C C61U	< 1e-05	< 1e-05		< 1e-05	
A14G U55C	0.00179 ± 0.00021	0.0382 ± 0.012	0.00449 ± 0.00098		0.0522 ± 0.015
A14G U55G	0.00161 ± 0.00014	0.00984 ± 0.0012	0.00404 ± 0.00073	0.00953 ± 0.0023	0.0589 ± 0.011
A14G G51C	< 1e-05	< 1e-05			
A14C A36G G60U C71U	< 1e-05				
A14U G59C	< 1e-05	< 1e-05	< 1e-05		< 1e-05
A14C G60U C71G	< 1e-05				< 1e-05
G13U U47C	< 1e-05				
G13C G60U	< 1e-05			< 1e-05	
A14U C16A U31C U49G G59U	< 1e-05				
G13U A52U C70G	< 1e-05				
A14C U54G	0.00011 ± 1.7e-05	0.00107 ± 0.00016	0.000219 ± 3.6e-05	0.00296 ± 0.00041	0.00448 ± 0.00056
G13U U31A A39C C68U U69A	< 1e-05	< 1e-05	< 1e-05		
A14U A42G	0.000273 ± 3.1e-05	0.00347 ± 0.00055	0.00064 ± 0.00015	0.00517 ± 0.001	0.0147 ± 0.0018
A14U A36G G40U A48C	< 1e-05				< 1e-05

Variant	self-cleavage kobs at 40 uM GlcN6P (glucosamine-6-phosphate [1]) [s⁻¹]	self-cleavage kobs at 640 uM GlcN6P (glucosamine-6-phosphate [2]) [s⁻¹]	self-cleavage kobs at 160 uM GlcN6P (glucosamine-6-phosphate [3]) [s⁻¹]	self-cleavage kobs at 2500 uM GlcN6P (glucosamine-6-phosphate [4]) [s⁻¹]	self-cleavage kobs at 10000 uM GlcN6P (glucosamine-6-phosphate [5]) [s⁻¹]
A14G G35C A42G G43U U56C C61A	< 1e-05			< 1e-05	< 1e-05
G13U G40U A42C A48U C58G U65A	< 1e-05				
G13U G41U G59U G63C U65G U69C	< 1e-05	< 1e-05		< 1e-05	< 1e-05
G13U G63C	< 1e-05	< 1e-05	< 1e-05		< 1e-05
A14C U47G	2.31e-05 ± 1.1e-05	0.000208 ± 3e-05	6.35e-05 ± 1.2e-05	0.000422 ± 8.2e-05	
G13U G63A C67A	< 1e-05				
G13U U54G	3.24e-05 ± 1.1e-05	0.000263 ± 6e-05	9.27e-05 ± 1.6e-05		
A14U G41C C70G	0.000998 ± 0.00029				
A14U C34A	< 1e-05	< 1e-05	< 1e-05	< 1e-05	
A14C C34A U47A A48U U65A	< 1e-05				< 1e-05
G13U G35C C71G	< 1e-05				< 1e-05
G13U A42C A53C C68A	< 1e-05				
A14U U55G	0.000209 ± 3.1e-05	0.00176 ± 0.00023	0.000508 ± 8e-05	0.0041 ± 0.00047	0.0105 ± 0.0021
A14U G60U	< 1e-05	< 1e-05	< 1e-05	< 1e-05	< 1e-05
A14G G38U	< 1e-05	< 1e-05	< 1e-05		
A14G A52C	< 1e-05				
G13C U46A C50U	< 1e-05				
A14U C34U A52G U55C G59A C71U	< 1e-05	< 1e-05			
A14U U49C G59C	< 1e-05				
A14G A36U A48U	< 1e-05				
A14C G62C	< 1e-05	< 1e-05	< 1e-05	< 1e-05	< 1e-05
A14C A39G C58G C71U	< 1e-05				
A14G A33U G43A	< 1e-05				
G13U U54C G59U	< 1e-05	< 1e-05		< 1e-05	
A14U U46G	1.98e-05 ± 6.9e-06	0.000293 ± 4.6e-05	9.07e-05 ± 2.1e-05	0.000548 ± 0.0001	0.00104 ± 0.00012
A14C U57C U69C	< 1e-05				

Variant	self-cleavage kobs at 40 uM GlcN6P (glucosamine-6-phosphate [1]) [s⁻¹]	self-cleavage kobs at 640 uM GlcN6P (glucosamine-6-phosphate [2]) [s⁻¹]	self-cleavage kobs at 160 uM GlcN6P (glucosamine-6-phosphate [3]) [s⁻¹]	self-cleavage kobs at 2500 uM GlcN6P (glucosamine-6-phosphate [4]) [s⁻¹]	self-cleavage kobs at 10000 uM GlcN6P (glucosamine-6-phosphate [5]) [s⁻¹]
A14C U45G U47A G51A U56C G59C C67A	< 1e-05				< 1e-05
G13U A36G G62U G66U C70A	< 1e-05				
A14C A33G G37U A42U C67G	< 1e-05				
G13U A14C A15U A53C	< 1e-05				
A14C C16A G51C	< 1e-05			< 1e-05	
A14C A36U G66U	< 1e-05	< 1e-05	< 1e-05		< 1e-05
A14G A52G C61U	< 1e-05				
G13U G44U U69G	< 1e-05				< 1e-05
A14U A15G G43C	< 1e-05	< 1e-05			
G13U A53U G59U	< 1e-05				
A14U G29U	2.02e-05 ± 9.5e-06	0.000104 ± 9.7e-06	3.57e-05 ± 7.2e-06	0.000222 ± 2e-05	0.000381 ± 3.2e-05
G13U C34A	< 1e-05	< 1e-05	< 1e-05	< 1e-05	< 1e-05
A14C A33G	< 1e-05			< 1e-05	< 1e-05
A14C U31G G37U A42U A52U	< 1e-05				
A14U A53U C71U	9.83e-05 ± 2.7e-05	0.000509 ± 8.6e-05	0.00021 ± 4.5e-05	0.00145 ± 0.00032	0.00546 ± 0.0013
A14C A39C A42G G62U C70G	< 1e-05				
A14G G32A U49A	< 1e-05				
A14U G37U G59U C61A	< 1e-05				
G13U C58U	< 1e-05				
G13U A42C C50A C61G U69A C71G	< 1e-05				< 1e-05
G13U G32C A36U	< 1e-05			< 1e-05	
G13C U30C G62A	< 1e-05	< 1e-05		< 1e-05	
A14C G38U	< 1e-05	< 1e-05			
A14G U49C U54A U65C	< 1e-05				
A14U C50A A53G C70A	< 1e-05			7.44e-05 ± 1.4e-05	
A14C A39C G40U U55A	< 1e-05				< 1e-05

Variant	self-cleavage kobs at 40 uM GlcN6P (glucosamine-6-phosphate [1]) [s⁻¹]	self-cleavage kobs at 640 uM GlcN6P (glucosamine-6-phosphate [2]) [s⁻¹]	self-cleavage kobs at 160 uM GlcN6P (glucosamine-6-phosphate [3]) [s⁻¹]	self-cleavage kobs at 2500 uM GlcN6P (glucosamine-6-phosphate [4]) [s⁻¹]	self-cleavage kobs at 10000 uM GlcN6P (glucosamine-6-phosphate [5]) [s⁻¹]
A14C G41A A42G A53G U65A C67A	< 1e-05				
A14C G63C	< 1e-05		< 1e-05		< 1e-05
A14C G59U	< 1e-05	< 1e-05			
G13C U69G	3.61e-05 ± 1.3e-05	9.44e-05 ± 2.5e-05	4.33e-05 ± 1.6e-05		
G13U C16U C70U	5.86e-05 ± 1.3e-05				0.00165 ± 0.00029
G13U G41C U49G C70G	< 1e-05				
A14G G60A	< 1e-05		< 1e-05		
A14C A33G G38A G41U	< 1e-05			< 1e-05	
A14G G62C	< 1e-05	< 1e-05	< 1e-05	< 1e-05	
G13U C16U	4.83e-05 ± 1.1e-05	0.0004 ± 6.9e-05	0.000115 ± 2.9e-05		
A14G C58G G60U U65C	< 1e-05				< 1e-05
A14G A53U U55G	0.000607 ± 0.00013				
G13U C50U	< 1e-05				< 1e-05
G13U C50A	< 1e-05				
G13U G35U	< 1e-05	< 1e-05	< 1e-05	< 1e-05	< 1e-05
G13C G63A	< 1e-05	< 1e-05		< 1e-05	
G13U U45A U47A G60C	< 1e-05				< 1e-05
A14C A48G U69C	< 1e-05				
A14U U30A	3.62e-05 ± 1e-05	0.000337 ± 5.2e-05	8.35e-05 ± 1.7e-05		
G13U G40A G60U C61G G66C	< 1e-05				< 1e-05
G13U A64U	< 1e-05	< 1e-05	< 1e-05	< 1e-05	< 1e-05
A14G U54C	0.00134 ± 0.00025	0.0185 ± 0.0064	0.00536 ± 0.00096		0.105 ± 0.042
A14U G62U	< 1e-05	< 1e-05		< 1e-05	< 1e-05
